# Source: paper PMC4336329 (PLoS ONE, 2015)
# Screen size: about 310,000 compounds; about 14,000 (4.5%) showed an effect of 50% or more. Effects have a minus sign here. This is one part of the list.
# Molecular target: human ether-à-go-go-related gene (hERG) potassium channel (human, UniProt Q12809)
# Assay: primary screen, population patch clamp on CHO cells stably expressing hERG
# 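Also: peak tail current of the secondary pulse compared with the same well before compound.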
# human ether-à-go-go-related gene (hERG) potassium channel, sequence (Q12809 whole entry, looked up): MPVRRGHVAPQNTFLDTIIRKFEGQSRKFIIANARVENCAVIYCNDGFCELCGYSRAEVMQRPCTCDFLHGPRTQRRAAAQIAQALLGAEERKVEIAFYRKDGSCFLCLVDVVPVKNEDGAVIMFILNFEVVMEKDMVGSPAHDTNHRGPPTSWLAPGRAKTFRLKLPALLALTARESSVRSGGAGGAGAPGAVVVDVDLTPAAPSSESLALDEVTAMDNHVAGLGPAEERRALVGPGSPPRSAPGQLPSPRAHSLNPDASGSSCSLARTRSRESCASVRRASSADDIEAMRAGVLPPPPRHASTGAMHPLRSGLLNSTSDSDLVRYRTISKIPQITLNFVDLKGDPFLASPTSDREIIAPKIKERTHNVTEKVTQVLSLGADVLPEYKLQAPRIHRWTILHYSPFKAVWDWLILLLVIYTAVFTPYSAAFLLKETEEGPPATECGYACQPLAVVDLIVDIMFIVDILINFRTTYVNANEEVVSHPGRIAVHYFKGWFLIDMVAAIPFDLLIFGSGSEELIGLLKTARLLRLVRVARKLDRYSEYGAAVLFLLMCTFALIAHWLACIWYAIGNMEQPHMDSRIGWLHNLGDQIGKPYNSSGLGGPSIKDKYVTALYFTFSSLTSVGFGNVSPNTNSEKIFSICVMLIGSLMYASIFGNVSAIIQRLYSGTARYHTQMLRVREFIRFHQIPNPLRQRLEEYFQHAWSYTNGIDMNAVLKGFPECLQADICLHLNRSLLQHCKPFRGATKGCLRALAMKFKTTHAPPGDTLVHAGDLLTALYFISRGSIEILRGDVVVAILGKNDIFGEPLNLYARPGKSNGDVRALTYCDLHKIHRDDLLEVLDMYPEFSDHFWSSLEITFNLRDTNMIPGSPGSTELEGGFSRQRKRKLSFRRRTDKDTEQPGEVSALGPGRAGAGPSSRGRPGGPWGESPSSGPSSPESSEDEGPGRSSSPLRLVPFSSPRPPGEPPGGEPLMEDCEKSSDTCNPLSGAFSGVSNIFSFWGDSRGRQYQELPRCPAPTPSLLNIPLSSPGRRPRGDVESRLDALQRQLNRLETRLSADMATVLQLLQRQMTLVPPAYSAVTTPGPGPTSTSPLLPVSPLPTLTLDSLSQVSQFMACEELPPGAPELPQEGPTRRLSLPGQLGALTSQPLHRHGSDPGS
row,Structure (SMILES),"hERG current change (%, negative = inhibition) at 10uM [%]"
1,CC1Sc2ccc(S(=O)(=O)N3CCC(C(=O)Nc4cccc(Cl)c4)CC3)cc2NC1=O (stereo not shown),10.9
2,O=C(CCCCCn1c(=S)[nH]c2ccc(Br)cc2c1=O)NCC1CCCO1 (stereo not shown),5.29
3,O=C(COC(=O)c1cc(=O)c2ccccc2o1)Nc1cc(Cl)ccc1Cl,2.19
4,CC(=O)Nc1ccc(NC(=O)CSc2ncnc3sc(C)c(C)c23)cc1,8.58
5,CN(C(=O)c1ccc(Br)o1)C1(C)CCS(=O)(=O)C1 (stereo not shown),13.4
6,CC(=O)N/C(=C/C(C)C)c1ccccc1,18.6
7,Cc1noc(C)c1Cc1ccc(O)cc1,1.98
8,COc1ccc(S(=O)(=O)Nc2c(C)nc3nc[nH]n3c2=O)cc1,25.4
9,Cc1nc(-c2ccc(C(=O)N3CCOCC3)cc2)cs1,3.92
10,O=C(Cn1nc(C(F)F)cc1C1CC1)NCCC1=CCCCC1,-1.8
11,Cc1cccc(Oc2ccccc2NC(=O)c2cnccn2)c1,-6.7
12,Cc1noc(C)c1S(=O)(=O)N(Cc1ccccc1)C(C)C,5.31
13,CCC(=O)c1ccc(OCCn2cnc3ccccc32)cc1.Cl,-27.5
14,O=C(CCCCCn1c(=S)[nH]c2cc3c(cc2c1=O)OCO3)N1CCN(C(=O)c2ccco2)CC1,-14.7
15,Clc1ccc(-c2n[nH]c3c2Cc2ccccc2-3)cc1Cl,22.4
16,COc1ccc(-n2c(SCC(=O)NCc3ccco3)nc3sc4c(c3c2=O)CCN(C)C4)cc1,-26.6
17,CC(=O)c1c(C)[nH]c(C(=O)OCC(=O)c2c(N)n(CC(C)C)c(=O)n(C)c2=O)c1C,1.12
18,CC1(C)Oc2ccc3ccc(=O)oc3c2/C(=C/Nc2cccc(O)c2)C1=O,14.2
19,COc1ccc(SC[C@H](Cc2ccccc2)N2CC[C@@H](NC(=O)OCc3ccccc3)CCC2=O)cc1,-10.2
20,O=C(Nc1ccc2c(c1)OCO2)c1ccc2nc[nH]c2c1,-14
21,NS(=O)(=O)c1ccc(NC(=O)NC2CCCCC2)cc1,4.96
22,COC(=O)c1ccc(NC(=O)c2ccccc2C(=O)Nc2ccc(C(=O)OC)cc2)cc1,-2.55
23,CCc1c(O)nc2ccccn2c1=O,0.476

row,Structure (SMILES),"hERG current change (%, negative = inhibition) at 10uM [%]"
1,CC(=O)C1=C(C)Nc2ncnn2C1c1ccc(Cl)cc1 (stereo not shown),-2.58
2,CN(CCCCOc1ccc(F)cc1)Cc1ccccc1.O=C(O)C(=O)O,-54.7
3,COC(=O)c1ccc(COC(=O)CCS(=O)(=O)c2ccc(C)cc2)cc1,-12.7
4,Cc1cccc(OCc2nnc(SCCC(=O)O)n2-c2ccccc2)c1,15.5
5,O=C(CCCn1c(=O)[nH]c2ccc(Br)cc2c1=O)NCc1ccc(Cl)cc1,7.19
6,O=C(c1noc2c1CCCC2)N1CCN(c2ccccc2)CC1,-17.6
7,O=C(CN1CCOCC1)OCCCc1ccccc1,9.77
8,Cc1ccc(S(=O)(=O)/N=S(/C)c2ccccc2)cc1 (stereo not shown),12.6
9,C#CC(CC)(CC)NC(=O)c1c(C)noc1C,-10.9
10,COc1cccc(CN2C(=O)c3cccc(N)c3C2=O)c1,-12.1
11,COc1nc2ccccc2nc1N1CCN(c2ccc(F)cc2)CC1,17.5
12,COc1ccc(/C=N\NC(=O)CNC(=O)C(c2ccccc2)c2ccccc2)cc1[N+](=O)[O-],-16.9
13,COCCCNC(=O)c1ccc(NC(C)=O)cc1,-0.918
14,COc1ccc(-c2ccc(C3C(C#N)=C(N)Oc4n[nH]c(C)c43)o2)cc1 (stereo not shown),21.8
15,CC1(C)Cc2c(sc(NC(=O)C(=O)N3CCCC3)c2C(=O)O)CO1,15.6
16,Cc1cc(C(=O)c2ccccc2)nc2ccccc12,-3.13
17,CS(=O)(=O)N1CCCC(C(=O)NCc2ccc(F)cc2Cl)C1 (stereo not shown),2.22
18,O=C1CCCC(O)=C1C1NCCc2ccccc21 (stereo not shown),19.1
19,Cc1cccc(CNC(=O)CC2C(=O)NCCN2C2CCCC2)c1 (stereo not shown),16.5
20,COc1ccc(N2CCN(C(=O)CSc3ccccc3N)CC2)cc1,3.07
21,COc1ccc(C2(C(F)(F)F)NC(=O)N(C)C(=O)N2C)cc1 (stereo not shown),-5.97
22,FC(F)(F)c1ccccc1N/N=C/c1cccnc1,12
23,Cc1sc2ncnc(N3CCC(C(=O)Oc4cccc(Cl)c4Cl)CC3)c2c1C,9.66

row,Structure (SMILES),"hERG current change (%, negative = inhibition) at 10uM [%]"
1,Cc1ccc(OCc2nnc(SCC(=O)Nc3sc(C)c(C)c3C#N)n2C)cc1,12.8
2,Cc1ccc2[nH]c3c(N4CCc5ccccc5C4)ncnc3c2c1,-4.52
3,CN(CC(=O)Nc1nccs1)S(=O)(=O)c1ccc(F)cc1,-10.3
4,COc1ccc(CN(CC(=O)NC2CCCC2)C(=O)CCC(=O)Nc2nc(C)cs2)cc1,-31.2
5,Cc1ccc(-c2cc(C(F)F)n3ncc(C(=O)N4CCc5ccccc5C4)c3n2)cc1,3.49
6,O=C(C(Sc1ccccc1)c1ccccc1)N1CCN(c2ccccc2)CC1 (stereo not shown),7.34
7,Cc1ccc(Nc2nc(N)c([N+](=O)[O-])c(N3CCOCC3)n2)cc1C,-13.9
8,CC(=O)Nc1ccc(Oc2nc(C)cc(C)n2)cc1,2.99
9,O=C(c1cccc(Br)c1)N1CCN(c2ccccn2)CC1,-4.19
10,O=C(CN1C(=O)CC(c2ccco2)Sc2ccccc21)NC1CCCCC1 (stereo not shown),-33.5
11,CC(=O)NCCc1nc2ccccc2n1Cc1cccc(C)c1,-5.94
12,NC(=O)NC(=O)C(Nc1ccc2c(c1)CCC2)c1ccccc1 (stereo not shown),20.2
13,COc1ccc(-c2[nH]c(-c3ccc(C)cc3)nc2SCC(=O)NC2CCCC2)cc1,-16.5
14,COc1ccc(C(=O)Nc2cc([N+](=O)[O-])ccc2N2CCN(C)CC2)cc1,-30.3
15,C#CCn1c(=NC(=O)CSCC(=O)N2CCOCC2)sc2ccccc21,-1.74
16,Cc1cccc(N2CCN(S(=O)(=O)c3ccc4c(c3)CCCN4C(=O)C3CCC3)CC2C)c1 (stereo not shown),8.97
17,Cc1nn(CC(=O)NCc2ccccc2Cl)c(C)c1[N+](=O)[O-],6.99
18,O=C(COc1ccc2c(-c3ccccc3)cc(=O)oc2c1)NCc1cccs1,15.2
19,O=C(O)CN1C(=O)NC2(CCc3ccccc32)C1=O (stereo not shown),8.91
20,COc1ccc(-c2n[nH]c3c2CN(C(=O)c2ccc(F)cc2)CC3)cc1,-33.5
21,Cc1c(NC(=O)CSc2nc3c(cnn3-c3ccccc3)c(=O)[nH]2)c(=O)n(-c2ccccc2)n1C,19.3
22,Cc1cc(=O)oc2c(C(=O)/C=C\c3cccs3)c(O)ccc12,11.1
23,O=C(C1CCCCC1)N1CCN(c2ccnc3cc(Cl)ccc23)CC1,-66.1

row,Structure (SMILES),"hERG current change (%, negative = inhibition) at 10uM [%]"
1,Cc1ccccc1SCC(=O)OCC(=O)NCCNC(=O)COC(=O)CSc1ccccc1C,-5.38
2,O=S(=O)(NCc1ccc2c(c1)OCO2)c1ccccc1F,7.53
3,Cc1ccc(-n2nnnc2SC(C)C(=O)Nc2ccccc2-c2ccccc2)cc1 (stereo not shown),0.482
4,COc1ccc(CCNc2oc(Cc3cccc4ccccc34)nc2C#N)cc1OC,-1.3
5,COC(=O)CC(NC(=S)N1CC2C[C@@H](C1)Cn1c2cccc1=O)C(=O)OC (stereo partly shown),10.7
6,COc1ccccc1OCC(=O)Sc1ccc(C)cc1,44.1
7,CCOc1ccc(OCCSc2nc(C)cc(=O)[nH]2)cc1,-14.3
8,Cc1nc2c(C#N)cnn2c2c1CCN2CC1CCCO1 (stereo not shown),-51.7
9,Cc1onc(-c2ccccc2Cl)c1C(=O)N1CCN(C(=O)c2ccco2)CC1,-16
10,CC(C)C(NC(=O)c1ccc(F)cc1)C(=O)NC1(C)CCS(=O)(=O)C1 (stereo not shown),1.84
11,N#Cc1c(/N=C/N2CCOCC2)sc2c1CCCCC2,-32.6
12,CNC(=S)N/N=C/c1ccc(N2CCOCC2)s1,51.6
13,CC(OC(=O)c1cccc(S(=O)(=O)N2CCCCCC2)c1)C(=O)Nc1ccc(S(N)(=O)=O)cc1 (stereo not shown),12.7
14,COc1ccc(-c2nc(N)ncc2-c2ccccc2OC)c(O)c1,14.1
15,Brc1ccc(CSc2ccc3nnc(-c4ccccn4)n3n2)cc1,-67.1
16,CC/C(=N/NC(=O)CCC(=O)Nc1ccccc1OC)c1ccccc1,-1.67
17,CCOC(=O)c1ccc(NC(=O)CSc2nc3ncccc3[nH]2)cc1,-9.61
18,Cc1cc(NC(=O)C2(c3ccccc3)CCCC2)no1,10.3
19,Cc1nnc(NC2=NCCC2)o1,3.71
20,COc1ccccc1C1CC(=O)Nc2cc3c(cc21)OCCO3 (stereo not shown),4.83
21,S=C(Nc1ccccc1)N1CCc2ccccc21,-29.4
22,O=C(Nc1cccc(N=Cc2cc(Cl)cc(Br)c2O)c1)c1ccco1,3.97
